Laboratory results from the supplement of paper PMC10126150.
Sequences with one replicate were seen in a single cluster, so their values are uncertain.

Tested on: ATP
Experiment: switch fluorescence ratio, 500 uM ATP over buffer (Cy3 cluster intensity, sum of 5 cycles each) (fold (ratio)); higher = stronger signal-on switching upon ATP binding; sequences stand for … in TCGTCGGCAGCGTCAGATGTGTATAAGAGACAGTTTTTTTTTTTTTTTTTTTTTTTTT…TC
Details: aptamer strand: ATP DNA aptamer (quencher-CACCTGGGGGAGTATTGCGGAGGAAGG + anchor), 100 nM annealed; ATP concentration: 500 uM; one replicate
Method in brief: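 For every switch-domain sequence, the fluorescence ratio is the mean of per-cluster values, each being summed target-cycle Cy3 intensity over summed buffer-cycle Cy3 intensity. Clusters outside 100-1000 RFU were excluded. On a modified Illumina MiSeq flow-cell, the Cy3-labelled switching-strand clusters were annealed to 100 nM quencher-labelled ATP aptamer, imaged in selection buffer and then after 15 min with 500 uM ATP at 22 °C. Five such cycles were run, with NaOH stripping and re-annealing between them.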
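Note: ATP exposure 15 min at 22 °C before imaging.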

Sequence	switch fluorescence ratio
TTATATCAGG	0.969
CCCCAGGGCA	4.7
CAGGATGCGG	0.971
ATAGGAGCC	1.02
TTAAGGAGAG	0.993
CTTAAAACCC	1.01
CAAGTTTGTT	1.02
CTAGGCAGGT	1.43
ACAGTATTCA	1.08
CATTAGCGA	1.34
ACCTCTGTTA	1.1
TACGGCGACA	1.13
TTTAATCCCA	1.03
CGGACCACCA	1.12
TATTACTACA	1.06
ACTGAGTGAC	1.07
GGGGTCGCGT	0.999
TTAATCCCGC	1.07
GGATGTCATA	1.04
GGGATATTTA	1.03
TGAGGGCTGT	1.04
ATAGCACCCA	1.12
TAAACTGACT	1.11

Sequence	switch fluorescence ratio
ATAACAGTTT	0.991
TGATGTCTTT	1.02
TTCAAGCTCG	0.986
CAGTTTTTCT	0.976
GAAAGGGTCG	0.909
GGAATAGATA	0.98
TAAAATAAAC	1.01
TAAGGTCGGG	0.995
GTCGATTGTG	1.05
CATAAGCTTG	1
GAGAAAAAAC	0.974
TCGTGGGTTC	0.956
TGGCGAGGGT	0.979
AGCCATGGAC	1.02
CGTGGCTCGT	0.995
CCCACAGGCC	1.46
GGCAATTACT	3.48
CGATGTTACC	1.07
GGGGAGGGT	0.976
GGGGCCCAG	1.04
GCATGATGTG	0.969
AGTAAACTGG	0.972
TCAACGTACC	1.68

Sequence	switch fluorescence ratio
CGACCGTAGA	1.06
TTGCGGGACT	1.17
GCAAGAAACC	1.02
AGTGATAACA	0.995
TTTATCCCGG	1.07
ATCCTTTGCA	1.35
TTAGTTGACT	0.964
ATGACGTCTT	0.965
TGCAATGCGT	1.82
TAAGGCGCTC	0.988
CTTCAATTCG	1.01
TATCCTGGT	1.01
TTTTGTATGC	0.984
CGCGACCGAC	2.2
TTTGTATAGC	0.992
GTAACCCAG	1.07
ATGTGGCCGT	0.977
GCCTGGAAGA	0.974
TTAAAAGTCA	0.948
TTATTATGTC	0.901
AGGAGTTCCT	0.982
AGGGCTCGTA	1.02
GAGCCGTTCG	0.98

Sequence	switch fluorescence ratio
GCGTTAGTTT	0.978
CAATAGCTTG	1.03
AAAGTTAGC	0.976
TATTGAGTA	0.983
CGAATTATAC	1.58
ACATGTCTCG	1.02
TAGTATAGTG	1.03
CATTGCAAGT	1.06
CTAGTATTCA	0.995
TCTTTGAGTT	0.974
GGATATAGAA	1.02
CATACATGCG	1.01
GTTCTCCAGT	1.06
GTTATCCAGG	1.33
GATGAGGGCA	0.998
CATTGTACAT	1.05
CATCTCTGAC	1.11
CTACTGATGA	1.02
AATAAGCCGT	1.06
AAGCTCTCAC	1.05
CTTTGGAGCC	1.03
AGCTTGCAGA	0.968
GGCGTCCTT	0.982

Sequence	switch fluorescence ratio
TGTCGGTAGG	0.975
AATTGTTCGA	0.997
CGCAGGTTGG	0.988
TATTGAGCGA	1.02
CAACTTCATC	1.11
CACATTACGC	1.35
TTTGAAGCGG	0.972
TCTCGATAGG	1.01
TTACTCGTAC	1.27
CTCTTCGCTT	1.45
ATTGAGTGGA	1.06
AAGTACGATT	1.25
CAAAGTATTG	0.982
GCGTACAATA	1.06
TGGGTCTCAT	0.975
CCTATTCACG	1.05
CTTTGAGTAA	1.04
AGGCGCGGGG	1.02
GGAGTTAAGG	0.997
AAAATTATGT	1.02
CCTGGGTGAC	1.51
TTCCAGATCT	1.01
GGCACCACTA	1.12

Sequence	switch fluorescence ratio
TTGGACTATG	0.994
ATAGTCTGGA	1.01
AGAATACGCT	1
TTTCGGTCCG	1.03
CCTTAGGTA	1.01
CGAGAATGCT	0.999
CGGTATGAGA	1.02
TTCGGCTTTA	0.974
GGCGATATGC	1.01
TTACTACGCC	1.35
GTGTTACCGT	0.989
AATAGAGTCT	1.04
CCGACATGAA	4.83
CGTAGGGGAT	1
TTCACGGGGA	1.03
TCGGATACT	1.08
TGTCATAATA	1.06
CTTGTTCCCC	0.951
CCCGGTCTAG	1.06
GTAAAACGGG	1.03
TTCGCGAGAG	1.59
CGCAGCTCTA	2.32
TAGCAGACGT	1.06

Sequence	switch fluorescence ratio
TACGTTTCGG	0.979
TGATTATTGT	1.07
GAAGAAAGAA	0.999
ATTTGCCAAG	0.997
CGGTAGTCGT	0.985
TTTGGCGATC	1.07
ATGAGCCAAA	1.03
GTGCATGGTT	1.01
GCGTAGAACT	0.993
AACAGTCTAT	1.01
TCAGTCACAC	1.06
TATGTGCTGA	0.98
GGTTTCCTG	0.968
TATCAGTGGA	1.04
GTCATACATT	0.999
AAAACTGTTG	1.02
CCATTCAAA	1.02
GGGTCGCGCT	0.98
TGGTGCCTGT	0.979
